{
  "source": "the supplement of paper PMC6531468",
  "note": "Some of the results follow. These are enrichments in a pooled selection; single values are uncertain. Scores sum up all selected molecules that hold the word; the word was not tested alone.",
  "data": [
    {"system": "IMP3 KH3-4", "sequence (chain, as listed by the source)": "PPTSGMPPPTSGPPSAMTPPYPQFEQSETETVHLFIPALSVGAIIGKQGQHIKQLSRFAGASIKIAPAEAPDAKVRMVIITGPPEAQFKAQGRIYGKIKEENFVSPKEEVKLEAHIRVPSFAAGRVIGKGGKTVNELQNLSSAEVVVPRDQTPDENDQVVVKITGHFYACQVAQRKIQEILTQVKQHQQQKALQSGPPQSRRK", "assay": "6-mer SELEX enrichment z-score vs GST control; IMP3 is the RNA-binding protein IGF2BP3; higher = more enriched by binding", "conditions": "construct: KH3-4 (377-579); SELEX round: R4", "procedure": "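SELEX-seq with GST-tagged IMP3 KH3-4 (Pro377-Lys579) and an N40 RNA pool, round 4. 6-mer z-score of sequence-tag enrichment normalised to the corresponding GST SELEX round; RNA k-mers written as DNA (T for U).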", "values": [
      {"sequence": "TTGCGC", "6-mer SELEX enrichment z-score": -0.359},
      {"sequence": "TAGTCG", "6-mer SELEX enrichment z-score": 0.479},
      {"sequence": "ACAGCG", "6-mer SELEX enrichment z-score": -1.67},
      {"sequence": "GCATAG", "6-mer SELEX enrichment z-score": -0.083},
      {"sequence": "TCTATC", "6-mer SELEX enrichment z-score": 0.318},
      {"sequence": "TAAGGC", "6-mer SELEX enrichment z-score": 0.726},
      {"sequence": "CAAGGG", "6-mer SELEX enrichment z-score": -0.021},
      {"sequence": "CATAAT", "6-mer SELEX enrichment z-score": 2.22},
      {"sequence": "AACACT", "6-mer SELEX enrichment z-score": 0.679},
      {"sequence": "CAGTTG", "6-mer SELEX enrichment z-score": -0.09},
      {"sequence": "AGATGT", "6-mer SELEX enrichment z-score": 0.65},
      {"sequence": "TTGATC", "6-mer SELEX enrichment z-score": 0.196},
      {"sequence": "AGGGAG", "6-mer SELEX enrichment z-score": 1.08},
      {"sequence": "CACCGG", "6-mer SELEX enrichment z-score": -0.648},
      {"sequence": "ACATCT", "6-mer SELEX enrichment z-score": -0.23},
      {"sequence": "GTTCTG", "6-mer SELEX enrichment z-score": 0.116},
      {"sequence": "AAGCCT", "6-mer SELEX enrichment z-score": -0.937},
      {"sequence": "AACACC", "6-mer SELEX enrichment z-score": -1.98},
      {"sequence": "TATCTA", "6-mer SELEX enrichment z-score": 0.372},
      {"sequence": "AGCAAG", "6-mer SELEX enrichment z-score": -0.108},
      {"sequence": "TGCTTT", "6-mer SELEX enrichment z-score": 0.518},
      {"sequence": "AAAGAC", "6-mer SELEX enrichment z-score": -0.365},
      {"sequence": "ACTTGT", "6-mer SELEX enrichment z-score": -0.111},
      {"sequence": "TCAATA", "6-mer SELEX enrichment z-score": 1.14},
      {"sequence": "CGGTCG", "6-mer SELEX enrichment z-score": 0.102},
      {"sequence": "GTACCC", "6-mer SELEX enrichment z-score": -0.95},
      {"sequence": "TATGTG", "6-mer SELEX enrichment z-score": 0.813},
      {"sequence": "TCAAAC", "6-mer SELEX enrichment z-score": -0.911},
      {"sequence": "TCCAGG", "6-mer SELEX enrichment z-score": -0.073},
      {"sequence": "TTTTCA", "6-mer SELEX enrichment z-score": 1.35},
      {"sequence": "GATAGG", "6-mer SELEX enrichment z-score": 0.932},
      {"sequence": "AGCCCG", "6-mer SELEX enrichment z-score": -1.53},
      {"sequence": "TACATA", "6-mer SELEX enrichment z-score": 2.47},
      {"sequence": "GTTACA", "6-mer SELEX enrichment z-score": 0.117},
      {"sequence": "CATTCA", "6-mer SELEX enrichment z-score": 1.27},
      {"sequence": "ATTTTA", "6-mer SELEX enrichment z-score": 2.32},
      {"sequence": "TCAAGT", "6-mer SELEX enrichment z-score": -0.006},
      {"sequence": "ACGGCC", "6-mer SELEX enrichment z-score": 1.12},
      {"sequence": "ATCCGA", "6-mer SELEX enrichment z-score": -1.68},
      {"sequence": "CCTATA", "6-mer SELEX enrichment z-score": 0.245}
    ]}
  ]
}
